The values below come from publication PMC8454092 (European Journal of Medicinal Chemistry, 2021).

The test has as its system wild type EBOV.

As for “(2R,3R,4R,5R)-2-(4-Aminopyrrolo[2,1-f][1,2,4]triazin-7-yl)-2-cyano-5-((((((R)-1-(2-ethylbutoxy)-1-oxopropan-2-yl)amino)(phenoxy)phosphoryl)oxy)methyl)-4-hydroxytetra hydrofuran-3-yl palmitate [Compound 3c]”, the IC50 (in general, the point on the concentration scale where inhibition reaches its midpoint) amounted to 190 nM. This counts as sub-micromolar.
In the case of “(2R,3R,4R,5R)-2-(4-Aminopyrrolo[2,1-f][1,2,4]triazin-7-yl)-2-cyano-5-((((((R)-1-(2-ethylbutoxy)-1-oxopropan-2-yl)amino)(phenoxy)phosphoryl)oxy)methyl)tetrahydrofuran-3,4-diyl ditetradecanoate [Compound 5b]” it was above 5000 nM.
